Values marked as one replicate rest on one cluster of the flow cell; about a third of the high ones do not repeat.
Tested on: ATP
Assay: switch fluorescence ratio, 500 uM ATP over buffer (Cy3 cluster intensity, sum of 5 cycles each) (fold (ratio)); higher = stronger signal-on switching upon ATP binding; sequences stand for … in TCGTCGGCAGCGTCAGATGTGTATAAGAGACAGTTTTTTTTTTTTTTTTTTTTTTTTT…TC
Details: aptamer strand: ATP DNA aptamer (quencher-CACCTGGGGGAGTATTGCGGAGGAAGG + anchor), 100 nM annealed; ATP concentration: 500 uM; one replicate
In short: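 Per cluster, summed Cy3 intensity from the target cycles was divided by that from the buffer cycles to give the fluorescence ratio, then averaged per switch-domain sequence. Clusters outside 100-1000 RFU were excluded. The Cy3-labelled switching-strand clusters, on a modified Illumina MiSeq flow-cell, were annealed to 100 nM quencher-labelled ATP aptamer and imaged in selection buffer, then after 15 min with 500 uM ATP at 22 °C, for five cycles with NaOH stripping and re-annealing between them.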
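Also: ATP exposure 15 min at 22 °C before imaging.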

| Sequence | switch fluorescence ratio |
| --- | --- |
| CAGGACTT | 1.01 |
| CAGGAGATTG | 0.989 |
| CAGGAGCCCT | 1.06 |
| CAGGAGGTAC | 1.11 |
| CAGGATGGGG | 0.999 |
| CAGGCATGTC | 1.05 |
| CAGGCCGAAC | 1.41 |
| CAGGCGGCGT | 0.98 |
| CAGGCTATCT | 0.991 |
| CAGGGAGATG | 0.985 |
| CAGGGCTGCC | 0.98 |
| CAGGGGAAGT | 1 |
| CAGGGGCTA | 1.04 |
| CAGGGGGCA | 1.03 |
| CAGGGTAAAT | 0.97 |
| CAGGGTACCT | 1.02 |
| CAGGGTATAT | 0.988 |
| CAGGGTCCAG | 0.971 |
| CAGGGTGCCT | 1.04 |
| CAGGGTGTCT | 1.04 |
| CAGGTAGGAA | 1.22 |
| CAGGTAGTTT | 1.01 |
| CAGGTCACAC | 1.03 |
| CAGGTCGAC | 0.979 |
| CAGGTCTAGT | 0.992 |

| Sequence | switch fluorescence ratio |
| --- | --- |
| CAGGTGCGC | 1.15 |
| CAGGTGGTAG | 0.99 |
| CAGGTGTCAA | 1.1 |
| CAGGTTAAGC | 0.961 |
| CAGGTTCCGT | 0.991 |
| CAGGTTGGAA | 1.06 |
| CAGTAAAGGT | 0.981 |
| CAGTACCACC | 1.15 |
| CAGTAGATC | 1.05 |
| CAGTAGGGTG | 1 |
| CAGTATAGTC | 1.01 |
| CAGTATCAAC | 1.02 |
| CAGTATCATT | 0.996 |
| CAGTCAAACC | 1.05 |
| CAGTCACTTC | 1.01 |
| CAGTCGCCAA | 1.06 |
| CAGTCGTATT | 1.05 |
| CAGTCTTTTC | 0.932 |
| CAGTGAAGCA | 1.04 |
| CAGTGAAGT | 0.988 |
| CAGTGATACT | 1.91 |
| CAGTGCACCT | 1.04 |
| CAGTGGCTTT | 1.03 |
| CAGTGGTGTA | 0.954 |
| CAGTGTAGTT | 1.02 |

| Sequence | switch fluorescence ratio |
| --- | --- |
| CAGTGTGATC | 1.05 |
| CAGTTAAATG | 0.954 |
| CAGTTCGGCG | 0.961 |
| CAGTTCTCGC | 0.972 |
| CAGTTGATAC | 1.48 |
| CAGTTGGCT | 0.997 |
| CAGTTTGCTC | 1.03 |
| CATAAAAGTC | 0.952 |
| CATAAATAGC | 1.07 |
| CATAAATTA | 0.939 |
| CATAAATTAC | 1.24 |
| CATAACCGTC | 1.21 |
| CATAAGTGGC | 1.04 |
| CATAATCTAA | 0.992 |
| CATAATGTGC | 0.982 |
| CATACAAGCC | 1.01 |
| CATACATTT | 0.996 |
| CATACCATCC | 1.65 |
| CATACGTAC | 1.71 |
| CATACGTGTT | 1.04 |
| CATACTTGTA | 0.982 |
| CATACTTTAA | 1.08 |
| CATAGCGTAA | 1.1 |
| CATAGGTACG | 1.05 |
| CATAGGTAGG | 0.981 |

| Sequence | switch fluorescence ratio |
| --- | --- |
| CATAGTCACT | 1.04 |
| CATAGTCAGG | 1.04 |
| CATATATGCA | 0.985 |
| CATATCCAAG | 0.988 |
| CATATCCGCT | 1.11 |
| CATATGCTAC | 4.01 |
| CATATTGAAA | 1.01 |
| CATATTGAAC | 0.99 |
| CATCAATCA | 1.01 |
| CATCAGCACT | 3.26 |
| CATCAGGCGC | 1.09 |
| CATCAGTCAG | 1.1 |
| CATCATACAG | 1.03 |
| CATCATTGTC | 1.11 |
| CATCATTTTG | 1.03 |
| CATCCATTGT | 0.969 |
| CATCCCACAT | 1.58 |
| CATCCTGAAA | 1.05 |
| CATCCTGATC | 1.21 |
| CATCGAGAAT | 0.988 |
| CATCGATCAC | 1.01 |
| CATCGATCAT | 0.974 |
| CATCGATGGA | 0.988 |
| CATCGCCGGG | 0.993 |
| CATCGGTAGT | 1.03 |
